Source: PubChem BioAssay AID1466 (National Center for Advancing Translational Sciences (NCATS), 2008)
Among all 200,000 compounds or so, about 10 (0.005%) were called active. Inconclusive results, whose numbers are uncertain, are shown with a selection of clear calls. Calls follow the shape of the dose curve; as a rule, active = well fitted inhibition curve with a large enough effect; inconclusive = small, poorly fitted or top-dose-only effect, or effect the other way, or another doubt; inactive = no such curve, though single readings can be large or run the other way. Potencies of inconclusive entries are left out as doubtful fits.

What follows are compounds tested against Lysosomal alpha-glucosidase (Homo sapiens) (UniProt P10253) (assay: qHTS Assay for Inhibitors of Human alpha-Glucosidase as a Potential Chaperone Treatment of Pompe Disease). Conditions: purified human GAA, 4-MU-alpha-glucoside fluorescence; activity change, negative = inhibition: at 76.9 µM (top of the series) unless noted.
How it was run: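 Compounds are titrated up to 77 uM against 4 nM human enzyme. Substrate 4-methylumbelliferyl-alpha-D-pyranoside (400 uM) reacts 20 min at room temperature in pH 5.0 buffer; liberated 4-methylumbelliferone is read at 440 nm.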
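For activity change, negative = inhibition in this document: plate controls were uninhibited enzyme wells for no effect and no-enzyme background for full effect.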
Potency is read from the fitted curve at half-maximal effect; tags tell the direction and shape of the fitted curve.

Row | Compound | Potency | activity change, negative = inhibition
1 | Nc1cc(=O)[nH]c(SCC(=O)NCC2CCCO2)n1 (configuration not stated) | inconclusive [inhibitor, single point] | 
2 | COc1ccc2oc(-c3ccccc3[N+](=O)[O-])cc(=O)c2c1 | inconclusive [inhibitor, single point] | 
3 | CCCC(=O)c1cc(F)c(N2CCN(S(=O)(=O)c3ccccc3)CC2)cc1C | inconclusive [inhibitor, full curve, poor fit] | 
4 | CCCc1cc(C(=O)Cc2nc3ccccc3s2)c(O)cc1O | inconclusive [activator, single point] | 
5 | COCc1ccc(C(=O)N2CCCC(C(=O)c3cccc(C(F)(F)F)c3)C2)o1 (configuration not stated) | inconclusive [inhibitor, single point] | 
6 | CCN(CC)C1CCN(C(=O)CCc2nnc(CCCCc3ccccc3)o2)C1 (configuration not stated) |  | inconclusive: 21.2% [activator]
7 | CCOC(=O)c1cc(OC(=O)c2ccccc2)n(-c2ccccc2)n1 | inconclusive [inhibitor, full curve, poor fit] | 
8 | CCCCCCc1cc2cc(S(=O)(=O)c3ccc(C)cc3)c(=O)oc2cc1O | inconclusive [activator, partial curve] | 
9 | Cc1oc2cc([N+](=O)[O-])c(O)c([N+](=O)[O-])c2c1C(=O)c1ccc(Br)cc1 | inconclusive [inhibitor, single point] | 
10 | COc1ccc(Cc2nc(=S)[nH][nH]2)cc1Br |  | inconclusive: 17.6% [activator]
11 | Cc1ccc(CNC(=O)C2CCN(S(=O)(=O)c3c(C)noc3/C=C/c3ccco3)CC2)cc1 | inconclusive [inhibitor, single point] | 
12 | N#Cc1sc2nc(-c3ccccc3)cc(C(F)(F)F)c2c1N |  | inactive: 6.32%
13 | O=c1sc(Nc2ccccc2)nc2ccccc12 |  | inconclusive: 15.3% [activator]
14 | CCN(CC)S(=O)(=O)c1cccc(-c2n[nH]c(=S)n2CC(C)C)c1 | inconclusive [inhibitor, partial curve] | 
15 | CCOC(=O)c1c(C)n(OCc2ccccc2)c2ccc3c(no[n+]3[O-])c12 | inconclusive [inhibitor, partial curve, poor fit] | 
16 | CSc1ccc(-c2nc3cnccn3c2Nc2ccc3c(c2)OCO3)cc1 |  | inactive: -27.7%
17 | CCn1c(C)nc2cc(-c3nc4n(n3)Cc3ccccc3-4)ccc21 |  | inactive: 0.37%
18 | CCCCCOC(=O)c1[nH]c2c(c1C)C(=O)CC(c1ccco1)C2 (configuration not stated) | inconclusive [inhibitor, single point] | 
19 | CC1=CC(=O)c2ccccc2C1=O | inconclusive [inhibitor, single point] | 
20 | COC(=O)CCn1nc(-c2ccc(C)cc2)c2ccccc2c1=O | inconclusive [inhibitor, partial curve, poor fit] | 
21 | Cc1c(C#N)c(=O)oc2ccc3ccccc3c12 | inconclusive [activator, partial curve] | 

Row | Compound | Potency | activity change, negative = inhibition
22 | CC1=C(C(=O)N2CCOCC2)C(c2ccccc2F)C2=C(CC(C)(C)CC2=O)N1 (configuration not stated) | inconclusive [activator, partial curve] | 
23 | Cc1ccc(C(=O)Nc2sc3c(c2C(=O)NCc2ccco2)CCCC3)cc1 | inconclusive [activator, single point] | 
24 | CC(=O)Nc1ccc2nc(SCC(=O)NCCOc3ccccc3)sc2c1 | inconclusive [inhibitor, single point] | 
25 | C=CCn1c(SCC(=O)NC2CCCCC2)nnc1C1CCCCC1 | inconclusive [inhibitor, partial curve] | 
26 | O=c1c2ccccc2c(-c2ccc(Cl)cc2)nn1-c1ccccc1 | inconclusive [inhibitor, single point] | 
27 | COC(=O)/C=C/C(=O)Nc1cccc(C(F)(F)F)c1 | inconclusive [inhibitor, full curve, poor fit] | 
28 | COc1cc(NC(=O)c2ccc(F)cc2)c(OC)cc1NC(=O)CN1CCOCC1 |  | inconclusive: 11.4% [activator]
29 | CCOc1cc(CNc2ncc(-c3ccc(OC)cc3)n2C)ccc1O |  | inactive: -1.84%
30 | O=C(CCc1nc2ccccc2s1)N1CCN(S(=O)(=O)c2cccs2)CC1 | inconclusive [inhibitor, partial curve] | 
31 | Cc1nc(N)sc1C(=O)OCC(C)C |  | inconclusive: -15.3% [inhibitor]
32 | CCOC(=O)CCC(NC(=O)c1ccccc1C(=O)NC(CCC(=O)OCC)C(=O)OCC)C(=O)OCC (configuration not stated) |  | inconclusive: -17.1% [inhibitor]
33 | CCOC(=O)c1ccc(NC(=S)NCc2cccnc2)cc1 | inconclusive [activator, full curve] | 
34 | NC(=O)c1ccsc1NC(=O)COC(=O)c1ccccc1NCc1ccco1 | inconclusive [activator, single point] | 
35 | CCOC(=O)c1c(C)[nH]c(C(=O)CSc2nnc(-c3ccncc3)n2CC)c1C | inconclusive [inhibitor, partial curve] | 
36 | N#CC(c1cccc(Cl)c1)c1ncc(C(F)(F)F)cc1Cl (configuration not stated) | inconclusive [inhibitor, single point] | 
37 | Cc1c(C(=O)N2CCCC2)sc(NC(=O)c2cccc(Cl)c2)c1C#N | inconclusive [inhibitor, single point] | 
38 | Cc1cccc(C(=O)Nc2cc(OCc3cccc(F)c3)c(Cl)cc2Cl)c1 | inconclusive [inhibitor, partial curve] | 
39 | CN1CCN(c2ccc(S(=O)(=O)N3CCCCC3)cc2NC(=O)c2ccc3ccccc3c2)CC1 | inconclusive [inhibitor, partial curve] | 
40 | CCCCC1CCC(c2nc(-c3ccccn3)no2)CC1 (configuration not stated) | inconclusive [inhibitor, single point] | 
41 | CCOc1cc(NC(=S)NCc2ccco2)c(OCC)cc1NC(C)=O |  | inactive: 8.2%
42 | COc1cc(NC(=O)CSCC(=O)Nc2cccc(C(F)(F)F)c2)c(Cl)cc1Cl | inconclusive [inhibitor, single point] | 
